Several values for one entry are separate records, joined by “and”; a condition that tells them apart may be missing. Equal entries are not always repeated. The campaign covered roughly 48,000 compounds. About 1,200 (2.5%) were called active. Not shown: some 2% with an inconclusive outcome.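 The calls were made as follows: active = activation of at least 60% and not above a set upper limit (about 1 call in 100 departs from these limits); inconclusive = activation of 40% to 60%, or above that upper limit; inactive = activation under 40%.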 The list shows a part of the results.
Molecular target: Probable G-protein coupled receptor 32 (Homo sapiens) (UniProt O75388)
UniProt O75388, sequence (O75388 whole entry, looked up): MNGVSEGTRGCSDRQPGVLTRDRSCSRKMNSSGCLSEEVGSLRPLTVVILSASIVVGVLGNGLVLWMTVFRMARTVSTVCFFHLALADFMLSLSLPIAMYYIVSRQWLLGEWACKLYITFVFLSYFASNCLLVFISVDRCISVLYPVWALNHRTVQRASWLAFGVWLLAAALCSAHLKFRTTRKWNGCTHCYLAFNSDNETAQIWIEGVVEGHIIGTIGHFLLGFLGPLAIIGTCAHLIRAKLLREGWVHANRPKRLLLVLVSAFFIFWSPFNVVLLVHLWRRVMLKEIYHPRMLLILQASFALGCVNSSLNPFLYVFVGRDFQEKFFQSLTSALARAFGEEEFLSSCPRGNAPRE
Test: qHTS for Agonists of Human Resolvin D1 Receptor DRV1; also: 0% is about no effect
Conditions: CHO-K1 GPR32 beta-arrestin PathHunter luminescence, 90 min; at 76.9 µM; active compounds read high; zero percent set by DMSO-only wells
Summary of the method: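 Luminescent readout of beta-Gal complementation quantifies ligand-induced beta-arrestin association with GPR32 in CHO-K1 cells; 90 min compound incubation at 37 °C, detection 1 h at room temperature.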

activation, inactive:
CCOCCCNC(=O)c1cn(CC(C)C)c(=O)c2c1c1ccccc1n2C 8.52%, Cn1c(SCC(=O)Nc2nc3ccccc3s2)ncc(C(=O)Nc2ccc(Cl)cc2)c1=O 5.21%, COC(=O)c1ccccc1NC(=O)c1nn(C)c2c1COc1ccccc1-2 -13.6%, Cc1cccn2c(=O)c3cc(C#N)c(=O)n(-c4nnc(SCc5ccc(F)cc5)s4)c3nc12 9.5%, COc1ccccc1Nc1ncc2c(n1)CCN(Cc1cc(F)cc(F)c1)C2 21.4%, CN(C)c1cc(NC(=O)CNC(C)(C)C)c(O)c2c1C[C@@H]1C[C@H]3[C@H](N(C)C)C(=O)C(C(N)=O)=C(O)[C@@]3(O)C(=O)C1=C2O 0.175%, Cc1cc(C)c(NC(=O)CSc2nc(=O)n(Cc3cccnc3)c3c2CCC3)c(C)c1 -8.55%, COc1ccc(-c2nc3sc(CCNC(=O)C(=O)Nc4cc(F)ccc4F)c(C)n3n2)cc1 -13%, COc1ccc2cc3cc(C(=O)N4CCN(c5cccc(C(F)(F)F)c5)CC4)sc3nc2c1 4.15%, COc1cc([N+](=O)[O-])ccc1NC(=O)N1CCC2(CC1)Nc1ccccc1-n1cccc12 -35.4%, CCn1cc(C(=O)NCCN(CC(C)C)CC(C)C)c(=O)c2cc(S(=O)(=O)N(C)C3CCCCC3)ccc21 7.16%, Cc1cccc(CCNC(=O)c2cc3c(=O)[nH]c4ccc(C)cc4c3s2)c1 -9.74%, Clc1ccc2c(c1)CCc1cccnc1C2=C1CCNCC1 6.93%, COc1ccccc1CNc1nc2ccccc2c2nc(-c3cccc(C)c3)nn12 -7.28%, COc1ccc(NC(=O)c2nnn(CC(=O)Nc3cccc(C)c3C)c2N)c(OC)c1 -7.22%, CCOCCCn1c(SCC(=O)NCc2ccccc2)nc2c(sc3ccccc32)c1=O 33.9%, Cn1c(=O)n(C)c2cc(N3CCOCC3)c(NC(=O)c3ccc(C(C)(C)C)cc3)cc21 37.3%, CCCCOc1ccccc1Cn1c(=O)sc2ccccc21 -29.6%, O=C1NCC2(CCN(CCc3ccccc3)CC2)O1 30.8% and 1.81%, CCOc1ccc(C(=O)Nc2cccc(NC(=O)c3ccc(Cl)cc3Cl)c2)cc1 -4.92%, Cc1cccc(NC(=O)CN(C)S(=O)(=O)c2ccc3c(c2)CCC(=O)N3)c1C 40.4%, CSc1ccc(CNC(=O)c2sc3ncnc(N(C)C4CCCCC4)c3c2C)cc1 -19.3%, Cc1cccc(C(=O)N2c3ncnn3C3(CCCCC3)[C@@H]3CCCC[C@@H]32)c1 -2.57%, Cc1ccc(Nc2nc3ccccc3nc2-n2nc(C)cc2C)c(Cl)c1 -22.4%, CCc1cccc(N2C(=O)CS(=O)(=O)C23C(=O)N(Cc2ccccc2)c2ccc(C)cc23)c1 (stereo unspecified) -9.05%, Cc1c(C(=O)Nc2ccc(F)cc2)oc2ccc(S(=O)(=O)N3CCCCCC3)cc12 4.37%, CCOc1ccc(CN2C(=O)C(=O)c3cccc(C)c32)cc1OC -81.6%, Cc1cccc(Nc2cc(C)nc(-n3nc(C)cc3C)n2)c1 -20.8%, CCOC(=O)c1cccc(NS(=O)(=O)c2ccc(-c3coc(C)n3)cc2)c1 30.7%, COC(=O)c1ccc2c(=O)n(CCc3ccc(S(N)(=O)=O)cc3)c(SCC(=O)C(C)(C)C)nc2c1 20.7%, COc1ccc(-c2cc(C(F)(F)F)n3ncc(-c4ccccc4)c3n2)cc1 -15.1%, COc1cc2c(cc1NC(=O)COc1ccc(Br)cc1)oc1ccccc12 -5.24%, Cc1cc(C)c(NC(=O)C2CCN(C(=O)N3CCOc4ccccc43)CC2)c(C)c1 8.8%, O=C(NCc1ccccc1)c1ccc(CS(=O)(=O)c2c(Cl)cccc2Cl)o1 19.2%, COc1ccc(OC)c(CCNC(=O)CCCn2c(=O)c3cccn3c3cccnc32)c1 -20.2%, COc1ccc(CNC(=O)c2cnn(-c3ccccc3)c2-n2cccc2)cc1OC 16.9%, Cc1ccc(NC(=O)Cn2nc(C)c3nn(-c4ccc(Cl)cc4)c(C)c3c2=O)cc1F -14.1%, COc1ccc(N2CCN(C(=O)CSc3nc(-c4ccccc4)no3)CC2)cc1 22.5%, COc1ccc(-n2nc3c(N4CCC(C(=O)NC5CCCCC5)CC4)nnc(C)c3c2C)cc1 1.24%, COc1ccc(-c2n[nH]c3c2C(c2ccccn2)N(C)C3=O)cc1 (stereo unspecified) -12.9%, Cc1cccc(C(=O)Nc2ccc3nc(SCC(=O)N4CCCC4)sc3c2)c1 -13%, O=C(CSc1nc(=O)[nH]c2c1CCC2)Nc1cc(C(F)(F)F)ccc1Cl -5.26%, Cc1ccc(NC(=O)c2nc(S(=O)(=O)Cc3ccc(F)cc3)ncc2Cl)cc1C -26.9%, CCOc1ccc(OCC)c(NC(=O)CN(C)S(=O)(=O)c2ccc3[nH]c(=O)oc3c2)c1 -2.46%, CCOC(=O)c1[nH]c(C)c(CCC(=O)N2CCN(c3cc(C)ccc3C)CC2)c1C -15.8%, Cc1ccc2oc(=O)c3cnn(CC(=O)N4CCN(c5cccc(Cl)c5)CC4)c3c2c1 2.03%, COc1cc(CNC(=O)c2ccc(NC(=O)N3CCCCc4ccccc43)cc2)cc(OC)c1OC 1.67%, Cc1cc(C(=O)NCCc2ccc(Cl)cc2)c2c(C)nn(-c3ccccc3)c2n1 0.134%, CC(=O)[C@@]1(O)CC[C@H]2[C@@H]3CCC4=CC(=O)CC[C@]4(C)[C@H]3CC[C@@]21C -1.3% and -7.36%, O=C(c1cccs1)N1CCCc2cc(NS(=O)(=O)c3cc(F)ccc3F)ccc21 -17.9%, Cc1ccc(OCC(=O)NCC(=O)OCc2cc(=O)n3nc(CC(C)C)sc3n2)cc1 -4.73%, CCc1ccccc1NC(=O)C1CCCN(S(=O)(=O)c2ccc3[nH]c(=O)ccc3c2)C1 (stereo unspecified) -15.2%, O=C(NCCc1ccc(Cl)cc1)c1cnc2sc(N3CCCC3)nn2c1=O -0.128%, CC(=O)c1cccc(NC(=O)CCn2nc(C)c(S(=O)(=O)N3CCCCC3)c2C)c1 -13%, CCCC(=O)N1c2ccccc2-c2nnc(SC)nc2OC1c1sccc1C (stereo unspecified) -15.4%, CC(Oc1ccccc1)C(=O)Nc1c(C(=O)Nc2cccc(F)c2)oc2ccccc12 (stereo unspecified) -15.4%, Cc1ccc(C)c(N2CCN(S(=O)(=O)c3cc(C(=O)Nc4ccccc4C(F)(F)F)ccc3F)CC2)c1 -22.2%, CN(C)c1ccc(CNC(=O)Cn2c(-c3cccs3)cc3cc(Cl)ccc32)cc1 -14.1%, CCOC(=O)c1c(NC(=O)COc2ccc(Cl)cc2Cl)sc2c1CCCCC2 32.4%, CCc1ccc(S(=O)(=O)Nc2cc3c(cc2C)n(C)c(=O)c(=O)n3C)cc1 16.7%, COc1ccccc1NC(=O)N1CCN(c2nnc(C)c3c(C)n(-c4ccccc4)nc23)CC1 -4%, Nc1c(-c2nc(-c3ccccc3Cl)no2)nnn1-c1ccccc1C(F)(F)F -4.01%, CC1=C(c2ccc(C)c(C)c2)S(=O)(=O)N=C1N1CCC(C(=O)NCc2ccc(N(C)C)cc2)CC1 4.42%, CCN(CC)S(=O)(=O)c1ccc(NC(=O)c2c(C)oc3ncnc(N4CCCCC4)c23)cc1 -0.846%, O=c1c2oc3ccccc3c2n(Cc2ccccc2F)c(=O)n1Cc1ccc2c(c1)OCO2 -13.7%, CCN(CC)CCN(C(=O)c1ccco1)c1nc2ccc(F)cc2s1 2.28%, Cc1ccc(-c2nnc(SCC(=O)NCc3ccccc3)o2)cc1 -8.76%, COc1ccc(CNC(=O)CC(C)CC2=NS(=O)(=O)c3ccccc3N2)cc1 (stereo unspecified) 4.88%, Cc1ccccc1Cn1c(=O)n(Cc2ccco2)c(=O)c2sc3ccccc3c21 -3.45%, CCOc1ccc(S(=O)(=O)Nc2ccc3c(c2)CCCN3C(=O)c2cccs2)cc1 -6.04%, CCOc1ccc(CCNC(=O)C2Cc3ccccc3N2C(=O)CC)cc1 (stereo unspecified) 0.325%, CCOC(=O)c1ccc(Nc2c(-c3ccc(OC)cc3)nc3nc[nH]n23)cc1 -30.5%, COc1ccccc1CNC(=O)Cc1c(C)c2cc3c(C)coc3c(C)c2oc1=O -17.5%, CCOC(=O)c1cc2c(=O)n3ccccc3nc2n(CCCOC)c1=NC(=O)c1c(-c2c(F)cccc2Cl)noc1C -22.4%, CCC(=O)N1CCc2cc(CNC(=O)Nc3cc(OC)c(OC)c(OC)c3)ccc21 17.5%, CCN(CC)C(=O)C1=C(C)Nc2nc3ccccc3n2C1c1ccccc1F (stereo unspecified) -4.08%, COc1ccc(Cl)cc1NC(=O)Cn1c(=O)n(-c2ccc(C)cc2)c(=O)c2ccc(C(=O)NCc3ccccc3Cl)cc21 -2.06%, O=C(Cc1ccc(NC(=O)N2CCCCc3ccccc32)cc1)NCc1cccc(Br)c1 -8.19%, Cc1cccc(N2CCN(C(=O)Cn3c(C)c4cnn(-c5ccccc5)c(=O)c4c3C)CC2)c1C -3.74%, Cc1nnc(SCc2cc(=O)c3cc(F)ccc3[nH]2)n1C -15.5%, COc1ccc(CNC(=O)C(=O)NCC(c2ccco2)S(=O)(=O)c2cccs2)cc1 (stereo unspecified) -11.5%
